One molecule from the supplement of paper PMC8728848 can be followed below.

This is one part of the list.

Assay in all cases: glycan array binding signal (z-score within array); higher = stronger binding
What all share (conditions): glycan notation: IUPAC condensed, linker removed

For experiment [1], the target named is Neu5Ac(a2-3)Gal(b1-3)]Neu5Ac(a2-3)Gal(b1-4)]GlcNAc. Summed up:
(§1)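 The binding signal is a Z-score computed within each array and averaged over linkers. Arrays of the same protein sequence at different concentrations or buffers were also averaged together. Data originate from 3228 arrays in the Consortium for Functional Glycomics database, kept only where the protein sequence was available.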

The next experiment concerns the target Neu5Ac(a2-3)Gal(b1-4)Glc. Summed up: as §1
The target in experiment [2] is Neu5Ac(a2-3)Gal(b1-4)GlcNAc. Put shortly:
as §1

Experiment [3] concerns the target Neu5Ac(a2-3)Gal(b1-4)GlcNAc(b1-2)Man. Put shortly:
as §1

In experiment [4] the target is Neu5Ac(a2-3)Gal(b1-4)GlcNAc(b1-2)Man(a1-3)[GlcNAc(b1-4)][Neu5Ac(a2-3)Gal(b1-4)GlcNAc(b1-2)Man(a1-6)]Man(b1-4)GlcNAc(b1-4)GlcNAc. Summed up: as §1
For experiment [5], the target named is Neu5Ac(a2-3)Gal(b1-4)GlcNAc(b1-2)Man(a1-3)[Neu5Ac(a2-3)Gal(b1-4)GlcNAc(b1-2)Man(a1-6)]Man(b1-4)GlcNAc(b1-4)GlcNAc. Put shortly: as §1
The target of experiment [6] is Neu5Ac(a2-3)Gal(b1-4)GlcNAc(b1-2)Man(a1-3)[Neu5Ac(a2-3)Gal(b1-4)GlcNAc(b1-2)Man(a1-6)]Man(b1-4)GlcNAc(b1-4)[Fuc(a1-6)]GlcNAc. Put shortly:
as §1

The target in experiment [7] is Neu5Ac(a2-3)Gal(b1-4)GlcNAc(b1-2)Man(a1-3)[Neu5Ac(a2-6)Gal(b1-4)GlcNAc(b1-2)Man(a1-6)]Man(b1-4)GlcNAc(b1-4)GlcNAc. Put shortly: as §1
In experiment [8] the target is Neu5Ac(a2-3)Gal(b1-4)GlcNAc(b1-2)[Neu5Ac(a2-3)Gal(b1-4)GlcNAc(b1-4)]Man(a1-3)[GlcNAc(b1-4)][Neu5Ac(a2-3)Gal(b1-4)GlcNAc(b1-2)[Neu5Ac(a2-3)Gal(b1-4)GlcNAc(b1-6)]Man(a1-6)]Man(b1-4)GlcNAc(b1-4)GlcNAc. Put shortly:
as §1

The target of experiment [9] is Neu5Ac(a2-3)Gal(b1-4)GlcNAc(b1-2)[Neu5Ac(a2-3)Gal(b1-4)GlcNAc(b1-4)]Man(a1-3)[GlcNAc(b1-4)][Neu5Ac(a2-3)Gal(b1-4)GlcNAc(b1-4)Man(a1-6)]Man(b1-4)GlcNAc(b1-4)GlcNAc. Put shortly:
as §1

Experiment [10] has as its target Neu5Ac(a2-3)Gal(b1-4)GlcNAc(b1-2)[Neu5Ac(a2-3)Gal(b1-4)GlcNAc(b1-6)]Man(a1-6)[Neu5Ac(a2-3)Gal(b1-4)GlcNAc(b1-2)Man(a1-3)]Man(b1-4)GlcNAc(b1-4)GlcNAc. Summed up: as §1
For experiment [11], the target named is Neu5Ac(a2-3)Gal(b1-4)GlcNAc(b1-2)[Neu5Ac(a2-3)Gal(b1-4)GlcNAc(b1-6)]Man(a1-6)[Neu5Ac(a2-3)Gal(b1-4)GlcNAc(b1-2)Man(a1-3)][GlcNAc(b1-4)]Man(b1-4)GlcNAc(b1-4)GlcNAc. Put shortly:
as §1

The target in experiment [12] is Neu5Ac(a2-3)Gal(b1-4)GlcNAc(b1-3)Gal. Summed up:
as §1

The target of experiment [13] is Neu5Ac(a2-3)Gal(b1-4)GlcNAc(b1-3)Gal(b1-3)GlcNAc. Summed up:
as §1

Experiment [14] deals with Neu5Ac(a2-3)Gal(b1-4)GlcNAc(b1-3)Gal(b1-4)GlcNAc. Summed up:
as §1

The target of experiment [15] is Neu5Ac(a2-3)Gal(b1-4)GlcNAc(b1-3)Gal(b1-4)GlcNAc(b1-2)Man(a1-3)[Neu5Ac(a2-3)Gal(b1-4)GlcNAc(b1-3)Gal(b1-4)GlcNAc(b1-2)Man(a1-6)]Man(b1-4)GlcNAc(b1-4)GlcNAc. Summed up: as §1
Experiment [16] deals with Neu5Ac(a2-3)Gal(b1-4)GlcNAc(b1-3)Gal(b1-4)GlcNAc(b1-3)Gal(b1-4)GlcNAc. Put shortly: as §1
In experiment [17] the target is Neu5Ac(a2-3)Gal(b1-4)GlcNAc(b1-3)Gal(b1-4)GlcNAc(b1-3)Gal(b1-4)GlcNAc(b1-2)Man(a1-3)[Neu5Ac(a2-3)Gal(b1-4)GlcNAc(b1-3)Gal(b1-4)GlcNAc(b1-3)Gal(b1-4)GlcNAc(b1-2)Man(a1-6)]GalNAc. Summed up: as §1
For experiment [18], the target named is Neu5Ac(a2-3)Gal(b1-4)GlcNAc(b1-3)Gal(b1-4)GlcNAc(b1-3)GalNAc. Put shortly: as §1
Experiment [19] addresses Neu5Ac(a2-3)Gal(b1-4)GlcNAc(b1-3)Gal(b1-4)GlcNAc(b1-3)[Neu5Ac(a2-3)Gal(b1-4)GlcNAc(b1-3)Gal(b1-4)GlcNAc(b1-6)]GalNAc. Put shortly:
as §1

The target in experiment [20] is Neu5Ac(a2-3)Gal(b1-4)GlcNAc(b1-3)Gal(b1-4)GlcNAc(b1-6)[Gal(b1-3)]GalNAc. Summed up: as §1
Experiment [21] concerns the target Neu5Ac(a2-3)Gal(b1-4)GlcNAc(b1-3)Gal(b1-4)[Fuc(a1-3)]GlcNAc. Put shortly: as §1
For experiment [22], the target named is Neu5Ac(a2-3)Gal(b1-4)GlcNAc(b1-3)GalNAc. Summed up:
as §1

B1: Gal 3C (Homo sapiens), P17931 (protein)
chain: YGAPAGPLIVPYNLPLPGGVVPRMLITILGTVKPNANRIALDFQRGNDVAFHFNPRFNENNRRVIVCNTKLDNNWGREERQSVFPFESGKPFKIQVLVEPDHFKVAVNDAHLLQYNHRVKKLNEISKLGISGDIDLTSASYTMI
As to B1, the “glycan array binding signal (z-score)” value in experiment [1] is -0.314; in the experiment with Neu5Ac(a2-3)Gal(b1-4)Glc, -0.126; in experiment [2] it was -0.279; in experiment [3], -0.168; in [4] it was -0.345; in experiment [5] it was -0.347. Moreover, the “glycan array binding signal (z-score)” value in experiment [6] is -0.232; in experiment [7] it was -0.296; in experiment [8], -0.305; in experiment [9] it was -0.332; in experiment [10], -0.272; in experiment [11] it was -0.336. The “glycan array binding signal (z-score)” value is -0.306 in [12]; -0.27 in experiment [13]; -0.314 in experiment [14]; 0.403 in experiment [15]; 0.735 in [16]; 0.386 in experiment [17]. The “glycan array binding signal (z-score)” value in experiment [18] was -0.341; in experiment [19], -0.01; in [20], -0.12; in experiment [21], -0.354; in experiment [22], -0.312.
